Laboratory results taken from patent US7666901B2, “Analogs of 17-hydroxywortmannin as PI3K inhibitors” (Wyeth, priority 2004, dated 2010).
At least one structure is not confirmed: it was looked up by name or label, or the drawing left a doubt.

System: T1, PI3K
T1 construct: PI3K FP IC50
Test: Fluorescence polarization assay for PI3K
Type: biochemical
Details: for PI3K FP IC50: Table 1; for IC50: Table 2
Description: This assay is used to determine the IC50 of compounds of the present invention as it identifies inhibitors of PI3 kinase by measuring inhibition.
The assay is run by placing 5 μL of diluted enzyme per well, then 5 μL of diluted compound (or 9.5 μL enzyme then 0.5 μL compound in DMSO) is added and mixed. Then, 10 μL substrate is added to start the reaction. The samples are incubated 30-60 minutes, then the reaction is stopped by adding 20 μL stop/detector mix.
PI3K is diluted with reaction buffer (e.g., 5 μL or 7.5 μL PI3K into 620 μL reaction buffer), and 5 μL of diluted enzyme is used per well. 5 μL reaction buffer or drug diluted in buffer (e.g., 4 μL/100 so final DMSO is 1% in reaction) is added to each. The samples are mixed by pipetting up and down. Alternatively, the enzyme can be diluted to 1215 μL. In this case 9.8 μL is added per well and 0.2 μL compound is added in DMSO.
To prepare 1 mL of substrate solution, 955 μL reaction buffer, 40 μL PIP2, and 2.5 μL ATP are mixed. 10 μL of substrate is added to each well to start the reaction.
Stop/detector mix is prepared by mixing 4 μL Red detector and 1.6 μL or 2.0 μL GST-GRP with 1 mL Stop buffer, which results in 10 nM probe and 70 nM GST-GRP). 20 μL of the stop/detector mix is added to each well to stop the reaction. The plates are read after 30-90 minutes keeping the red probe solutions dark.
For the zero time point, stop/detector mix is added to the enzyme just before adding substrate. For an extra control, stop/detector mix is added to buffer (no enzyme) and substrate or to just buffer (no substrate).
The recommended reaction has 0.06 μL per 20 μL (0.015 μg/20 μL) or 0.01125 μg/15 μL or 0.75 μg/mL.
Plates are read on machines with filters for Tamra. The units are mP with no enzyme controls reading app 190-220 mP units. Fully active enzyme reduces fluorescence polarization down to 70-100 mP after 30 minutes. An active cpd raises the mP values halfway to control or to 120-150 mP units.

SMILES	PI3K FP IC50 [µg/mL]	IC50 [nM]
CCN(/C=C1/C(=O)O[C@H](COC)[C@@]2(C)C1=C(O)C(=O)C1=C2[C@H](OC(C)=O)C[C@]2(C)[C@@H](O)CC[C@@H]12)CC [Compound 1, (1E,4S,4aR,5R,6aS,7S,9aR)-1-[(diethylamino)methylene]-7,11-dihydroxy-4-(methoxymethyl)-4a,6a-dimethyl-2,10-dioxo-1,2,4,4a,5,6,6a,7,8,9,9a,10-dodecahydroindeno[4,5-h]isochromen-5-yl acetate]	0.09	179
COC[C@H]1OC(=O)/C(=C/N(C)C2CCCCC2)C2=C(O)C(=O)C3=C([C@H](OC(C)=O)C[C@@]4(C)C3CC[C@@H]4O)[C@]21C (stereo partly drawn) [Compound 9, (1E,4S,4aR,5R,6aS,7S)-1-{[cyclohexyl(methyl)amino]methylene}-7,11-dihydroxy-4-(methoxymethyl)-4a,6a-dimethyl-2,10-dioxo-1,2,4,4a,5,6,6a,7,8,9,9a,10-dodecahydroindeno[4,5-h]isochromen-5-yl acetate]	>2.5	
COC[C@H]1OC(=O)/C(=C/N2CCN(Cc3ccccc3)CC2)C2=C(O)C(=O)C3=C([C@H](OC(C)=O)C[C@@]4(C)C3CC[C@@H]4O)[C@]21C (stereo partly drawn) [Compound 10, (1E,4S,4aR,5R,6aS,7S)-1-[(4-benzylpiperazin-1-yl)methylene]-7,11-dihydroxy-4-(methoxymethyl)-4a,6a-dimethyl-2,10-dioxo-1,2,4,4a,5,6,6a,7,8,9,9a,10-dodecahydroindeno[4,5-h]isochromen-5-yl acetate]	0.053	
COC[C@H]1OC(=O)/C(=C/N2CCCCC2)C2=C(O)C(=O)C3=C([C@H](OC(C)=O)C[C@@]4(C)C3CC[C@@H]4O)[C@]21C (stereo partly drawn) [Compound 11, (1E,4S,4aR,5R,6aS,7S)-7,11-dihydroxy-4-(methoxymethyl)-4a,6a-dimethyl-2,10-dioxo-1-(piperidin-1-ylmethylene)-1,2,4,4a,5,6,6a,7,8,9,9a,10-dodecahydroindeno[4,5-h]isochromen-5-yl acetate]	0.053	
COC[C@H]1OC(=O)/C(=C/N2CCc3ccccc3C2)C2=C(O)C(=O)C3=C([C@H](OC(C)=O)C[C@@]4(C)C3CC[C@@H]4O)[C@]21C (stereo partly drawn) [Compound 12, (1E,4S,4aR,5R,6aS,7S)-1-(3,4-dihydroisoquinolin-2(1H)-ylmethylene)-7,11-dihydroxy-4-(methoxymethyl)-4a,6a-dimethyl-2,10-dioxo-1,2,4,4a,5,6,6a,7,8,9,9a,10-dodecahydroindeno[4,5-h]isochromen-5-yl acetate]	0.2	
COC[C@H]1OC(=O)/C(=C/N2CCN(c3ccccc3)CC2)C2=C(O)C(=O)C3=C([C@H](OC(C)=O)C[C@@]4(C)C3CC[C@@H]4O)[C@]21C (stereo partly drawn) [Compound 13, (1E,4S,4aR,5R,6aS,7S)-7,11-dihydroxy-4-(methoxymethyl)-4a,6a-dimethyl-2,10-dioxo-1-[(4-phenylpiperazin-1-yl)methylene]-1,2,4,4a,5,6,6a,7,8,9,9a,10-dodecahydroindeno[4,5-h]isochromen-5-yl acetate]	0.036	53
COC[C@H]1OC(=O)/C(=C/N2CCC(c3ccccc3)CC2)C2=C(O)C(=O)C3=C([C@H](OC(C)=O)C[C@@]4(C)C3CC[C@@H]4O)[C@]21C (stereo partly drawn) [Compound 15, (1E,4S,4aR,5R,6aS,7S)-7,11-dihydroxy-4-(methoxymethyl)-4a,6a-dimethyl-2,10-dioxo-1-[(4-phenylpiperidin-1-yl)methylene]-1,2,4,4a,5,6,6a,7,8,9,9a,10-dodecahydroindeno[4,5-h]isochromen-5-yl acetate]	0.102	
CCN(/C=C1/C(=O)O[C@H](COC)[C@@]2(C)C1=C(O)C(=O)C1=C2[C@H](OC(C)=O)C[C@@]2(C)C1CC[C@@H]2OC=O)CC (stereo partly drawn) [Compound 18, (1E,4S,4aR,5R,6aS,7S)-1-[(diethylamino)methylene]-7-(formyloxy)-11-hydroxy-4-(methoxymethyl)-4a,6a-dimethyl-2,10-dioxo-1,2,4,4a,5,6,6a,7,8,9,9a,10-dodecahydroindeno[4,5-h]isochromen-5-yl acetate]	0.629	
COC[C@H]1OC(=O)/C(=C\NCCOCCOCCNC(=O)CCCC[C@H]2SC[C@H]3NC(=O)N[C@H]32)C2=C(O)C(=O)C3=C([C@H](OC(C)=O)C[C@@]4(C)C3CC[C@@H]4O)[C@]21C (stereo partly drawn) [Compound 51, (1Z,4S,4aR,5R,6aS,7S)-7,11-dihydroxy-4-(methoxymethyl)-4a,6a-dimethyl-2,10-dioxo-1-{12-oxo-16-[(3aR,4R,6aS)-2-oxohexahydro-1H-thieno[3,4-d]imidazol-4-yl]-5,8-dioxa-2,11-diazahexadec-1-ylidene}-1,2,4,4a,5,6,6a,7,8,9,9a,10-dodecahydroindeno[4,5-h]isochromen-5-yl acetate]		616
